# Laboratory results: publication PMC9911399, “Two distinct binding modes provide the RNA-binding protein RbFox with extraordinary sequence specificity”
# Residue numbers refer to the chain shown, from its start. The list shows a part of the results.
# T1: RBFOX1 RRM (Homo sapiens, UniProt Q9NWB1 109-208)
# T1 sequence: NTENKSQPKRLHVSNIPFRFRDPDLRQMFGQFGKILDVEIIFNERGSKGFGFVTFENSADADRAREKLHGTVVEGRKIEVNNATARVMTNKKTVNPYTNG
# B1: AUGUCUU (DNA:RNA)
# RNA: GGGAGACCGGAAUUCAGAUUGUCCAUGUCUUUUAAAUCCCGUCGUAGCCACCA
# DNA 1: CAATCTGAATTCCGGTCTCCC
# DNA 2: TGGTGGCTACGACGGGATT
# B2: GUCGAUC (DNA:RNA)
# RNA: B1 RNA with A25G, G27C, U28G, C29A, U31C
# DNA 1: CAATCTGAATTCCGGTCTCCC
# DNA 2: TGGTGGCTACGACGGGATT
# B3: UCUGGCC (DNA:RNA)
# RNA: GGGAGACCGGAAUUCAGAUUGUCCUCUGGCCUUAAAUCCCGUCGUAGCCACCA
# DNA 1: CAATCTGAATTCCGGTCTCCC
# DNA 2: TGGTGGCTACGACGGGATT
# B4: AUUUCUA (DNA:RNA)
# RNA: B1 RNA with G27U, U31A
# DNA 1: CAATCTGAATTCCGGTCTCCC
# DNA 2: TGGTGGCTACGACGGGATT
# B5: AGUUGGU (DNA:RNA)
# RNA: B1 RNA with U26G, G27U, C29G, U30G
# DNA 1: CAATCTGAATTCCGGTCTCCC
# DNA 2: TGGTGGCTACGACGGGATT
# B6: UGCCGAU (DNA:RNA)
# RNA: B3 RNA with C26G, U27C, G28C, C30A, C31U
# DNA 1: CAATCTGAATTCCGGTCTCCC
# DNA 2: TGGTGGCTACGACGGGATT
# B7: CCAAGCU (DNA:RNA)
# RNA: B3 RNA with U25C, U27A, G28A, C31U
# DNA 1: CAATCTGAATTCCGGTCTCCC
# DNA 2: TGGTGGCTACGACGGGATT
# B8: GUGCUCC (DNA:RNA)
# RNA: B1 RNA with A25G, U28C, C29U, U30C, U31C
# DNA 1: CAATCTGAATTCCGGTCTCCC
# DNA 2: TGGTGGCTACGACGGGATT
# B9: GCCCCAU (DNA:RNA)
# RNA: B1 RNA with A25G, U26C, G27C, U28C, U30A
# DNA 1: CAATCTGAATTCCGGTCTCCC
# DNA 2: TGGTGGCTACGACGGGATT
# B10: AUAGGUA (DNA:RNA)
# RNA: B1 RNA with G27A, U28G, C29G, U31A
# DNA 1: CAATCTGAATTCCGGTCTCCC
# DNA 2: TGGTGGCTACGACGGGATT
# B11: AUCAGGC (DNA:RNA)
# RNA: B1 RNA with G27C, U28A, C29G, U30G, U31C
# DNA 1: CAATCTGAATTCCGGTCTCCC
# DNA 2: TGGTGGCTACGACGGGATT
# B12: UACCUAG (DNA:RNA)
# RNA: B3 RNA with C26A, U27C, G28C, G29U, C30A, C31G
# DNA 1: CAATCTGAATTCCGGTCTCCC
# DNA 2: TGGTGGCTACGACGGGATT
# B13: UACCAUG (DNA:RNA)
# RNA: B1 RNA with A25U, U26A, G27C, U28C, C29A, U31G
# DNA 1: CAATCTGAATTCCGGTCTCCC
# DNA 2: TGGTGGCTACGACGGGATT
# B14: UCACAGC (DNA:RNA)
# RNA: B3 RNA with U27A, G28C, G29A, C30G
# DNA 1: CAATCTGAATTCCGGTCTCCC
# DNA 2: TGGTGGCTACGACGGGATT
# B15: CAAGCAU (DNA:RNA)
# RNA: B1 RNA with A25C, U26A, G27A, U28G, U30A
# DNA 1: CAATCTGAATTCCGGTCTCCC
# DNA 2: TGGTGGCTACGACGGGATT
# B16: UAUGAAU (DNA:RNA)
# RNA: B3 RNA with C26A, G29A, C30A, C31U
# DNA 1: CAATCTGAATTCCGGTCTCCC
# DNA 2: TGGTGGCTACGACGGGATT
# B17: UUGCUGA (DNA:RNA)
# RNA: B1 RNA with A25U, U28C, C29U, U30G, U31A
# DNA 1: CAATCTGAATTCCGGTCTCCC
# DNA 2: TGGTGGCTACGACGGGATT
# B18: UCCGACC (DNA:RNA)
# RNA: B3 RNA with U27C, G29A
# DNA 1: CAATCTGAATTCCGGTCTCCC
# DNA 2: TGGTGGCTACGACGGGATT
# B19: CAAAACU (DNA:RNA)
# RNA: B1 RNA with A25C, U26A, G27A, U28A, C29A, U30C
# DNA 1: CAATCTGAATTCCGGTCTCCC
# DNA 2: TGGTGGCTACGACGGGATT
# B20: UCCUUGA (DNA:RNA)
# RNA: B3 RNA with U27C, G28U, G29U, C30G, C31A
# DNA 1: CAATCTGAATTCCGGTCTCCC
# DNA 2: TGGTGGCTACGACGGGATT
# Target: T1, RBFOX1 RRM
# Experiment: EMSA; HiTS-Eq, 1 nM pool, 10 min; buffer printed only for the single-RNA assays: 10 mM Tris pH 7.5, 150 mM NaCl, 3.4 mM EDTA, 0.001% NP-40, 30 C
# Conditions: tags: His6 N-terminal (pET28a); label: 5' 32P
# In short: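 These values rest on relative association constants, computed from read-count changes of each RNA species versus the control reaction and normalised to the cognate motif. Reads came from free RNA recovered by 8% native PAGE after purified RbFox RRM (wild type or mutant) at increasing concentrations was equilibrated for 10 min in 50 µL with 1 nM of a 5′-radiolabelled pool with 7 randomized nucleotides and DNA-annealed flanks.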
row,Binder,binding signal
1,B1,0.00976 KA relative to UGCAUGU
2,B2,0.0161 KA relative to UGCAUGU
3,B3,0.0211 KA relative to UGCAUGU
4,B4,0.00442 KA relative to UGCAUGU
5,B5,0.016 KA relative to UGCAUGU
6,B6,0.025 KA relative to UGCAUGU
7,B7,0.0041 KA relative to UGCAUGU
8,B8,0.0357 KA relative to UGCAUGU
9,B9,0.00315 KA relative to UGCAUGU
10,B10,0.00676 KA relative to UGCAUGU
11,B11,0.00771 KA relative to UGCAUGU
12,B12,0.00611 KA relative to UGCAUGU
13,B13,0.00789 KA relative to UGCAUGU
14,B14,0.00287 KA relative to UGCAUGU
15,B15,0.00436 KA relative to UGCAUGU
16,B16,0.0106 KA relative to UGCAUGU
17,B17,0.0257 KA relative to UGCAUGU
18,B18,0.00442 KA relative to UGCAUGU
19,B19,0.000609 KA relative to UGCAUGU
20,B20,0.0113 KA relative to UGCAUGU
